Experimental data as given in PubChem BioAssay AID1508623 (National Center for Advancing Translational Sciences (NCATS), 2021).
Out of some 48,000 compounds screened, about 450 (0.94%) were called active. About 19% were inconclusive and are not listed. The call rests on the fitted dose curve; in most records, active means well fitted inhibition curve with a large enough effect; inconclusive means small, poorly fitted or top-dose-only effect; inactive means no such curve, though single readings can be large or run the other way. The list shows a part of the results.

assay: Primary qHTS for Identification of Small Molecule Inhibitors of Huntingtin Promoter Activity; conditions: HEK293 HTT promoter firefly luciferase reporter (activity 0% = vehicle and -100% = no light), 24 h; series mostly up to 57.5 µM; activity change, negative = inhibition: at the top concentration; further: nearly all actives have a fitted effect of over 50% in size
Outline: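 Quantitative HTS used concentration series of up to 57.5 uM final on HEK293 luciferase reporter cells, 24 h at 37 degrees C. Readout was Dual-Glo firefly luminescence.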

Activity change, negative = inhibition, inactive:
O=C(Nc1sc2c(c1C(=O)NCC1CCCO1)CCC2)c1cc(=O)c2cc(Cl)ccc2o1 (stereo unspecified) 0%, Cc1ccc(CCNC(=O)c2ccc3c(c2)N(Cc2ccccc2F)C(=O)c2ccccc2S3=O)cc1 (stereo unspecified) 2.92%, COc1cccc(NC(=O)CCCn2c(=O)c3cccn3c3cccnc32)c1 17.8%, O=C1C(=O)N(C2CCNCC2)CCN1Cc1ccccc1 0%, COc1ccc(-c2nc(CCNC(=O)c3ccccc3)cs2)cc1OC -16.2%, Fc1ccc(-c2cc(-c3ccccc3)c3c(n2)-c2ccccc2OC3)cc1 -9.57%, Cc1cccc(C)c1NC(=O)CCCn1c(=O)c2cccn2c2ccccc21 -2.29%, CCOC(=O)c1c(S(=O)(=O)NCC(=O)Nc2ccc(C(C)=O)cc2)c(C)n(C)c1C 2.67%, COc1ccc(NC(=O)CN2C(=O)CCc3cc(S(=O)(=O)N4CCOCC4)ccc32)c(OC)c1 -22.6%, CCOc1ccccc1NC(=O)Cn1c(=O)n(-c2ccccc2)c(=O)c2c1c1cc(C)ccc1n2C -11.7%, CCCS(=O)c1ccc2nc(NC(=O)OC)[nH]c2c1 (stereo unspecified), CCN(C(=O)CSc1nnc(-c2cc3occc3n2C)n1-c1ccccc1C)c1cccc(C)c1 -16%, COc1ccc(-c2cn3c(n2)sc2cc(C(=O)NCCCN4CCCCC4)ccc23)cc1 -22.1%, CCc1ccc(CNC(=O)CSc2cc(=O)n(CC)c3ccccc23)cc1 -20.3%, CCNC(=O)c1c(C)oc2ncn(C)c(=O)c12 -16.5%, Cc1nn(CCCC(=O)Nc2cc(C(F)(F)F)ccc2Cl)c(=O)c2c1sc1ccccc12 3.93%, CCc1nn(CC(=O)N(CC)Cc2ccccc2)c(=O)c2cc3occc3n12 -24.7%, CCc1ccc(NS(=O)(=O)c2ccc3[nH]cc(C(=O)NCc4ccc(C)cc4)c(=O)c3c2)cc1 -22.2%, CCOc1ccc(-n2c(=O)c3c4c(sc3n(Cc3cccc(C)c3)c2=O)CCCC4)cc1 -5%, Clc1ccc2nc(Nc3ccccc3Cl)nc(-c3ccccc3)c2c1 0%, CC(=O)O[C@@H]1C(=O)O[C@@H]2[C@H]1OC(=O)[C@@H]2OC(C)=O -10.2%, Cc1ccc(-c2cn3c(n2)sc2cc(C(=O)NC4CCCc5ccccc54)ccc23)cc1 (stereo unspecified) 47.4%, CCOCCCNC(=O)C1CCN(c2cc(C)nc3c(-c4ccc(Cl)cc4)c(C)nn23)CC1 -7.14%, CCc1ccc(NCc2cc3cc4c(cc3n(CC(=O)Nc3ccccc3Cl)c2=O)OCO4)cc1 -35.6%, CCOc1ccccc1NC(=O)Nc1cc(C(=O)NCc2ccc(C)cc2)ccc1N1CCCC1 -31.7%, COc1ccc(OC)c(NC(=O)c2c(NCc3ccc(OC)c(OC)c3)sc3c2CCC3)c1 -7.43%, Cc1ccc(NC(=O)c2cc3c(-c4ccccc4)nn(-c4ccccc4)c3s2)cc1 7.7%, O=C(Nc1ccc(Br)cc1F)C(NS(=O)(=O)c1cccc2nsnc12)c1ccccc1 (stereo unspecified) -27%, COc1ccc(NC(=O)Cn2c(=O)n(CC(=O)NCCc3ccccc3)c(=O)c3ccccc32)cc1 2.35%, O=C(Nc1cc(-c2nc3ccccc3o2)ccc1Cl)c1ccc(Br)o1 25.4%, Cc1c(C(=O)NCc2ccccc2)sc2nc[nH]c(=O)c12 12.8%, Cc1ccc(CCNc2nc3c(S(=O)(=O)c4ccccc4)nnn3c3ccsc23)cc1 -9.18%, COc1cc(-c2noc(-c3ccc(N(C)C)c([N+](=O)[O-])c3)n2)cc(OC)c1OC -3.96%, Cc1ccccc1Cn1c2ccccc2c2cnn(CC(=O)NCCCc3ccccc3)c(=O)c21 9.94%, O=C(Cn1c(-c2cccs2)cc2cc(F)ccc21)N1CCN(c2cccc(Cl)c2)CC1 -24.3%, CC(=O)Nc1ccc(S(=O)(=O)NC2(C(F)(F)F)NC(=O)N(c3ccccc3F)C2=O)cc1 (stereo unspecified) -4.72%, CCC1CN(C(=O)Nc2cccc(OC)c2)c2ccccc2O1 (stereo unspecified) -28.1%, COc1ccc2c(c1)c1c(c(=O)n(-c3ccc(F)c(Cl)c3)c(=O)n1CC(N)=O)n2C -4.26%, COc1cccc2c1cc1c(=O)n(CC(=O)O)nc(C)n12 8.65%, CCOc1ccc(Nc2sc(C(=O)c3ccc4c(c3)OCO4)c(N)c2S(=O)(=O)c2ccc(C)cc2)cc1 -27.4%, COc1ccccc1CNC(=O)CSc1cc(=O)n(C)c2ccccc12 9%, COc1ccc(-c2cc(C(F)(F)F)nc(NCc3ccc(Cl)cc3)n2)cc1 -19.3%, CC1CCCCN1S(=O)(=O)c1cc2c(=O)nc3ccccn3c2cc1Cl (stereo unspecified) -2.23%, CCOc1ccc(C2C(C(=O)Nc3ccccc3OC)=C(C)Nc3c(C(=O)Nc4cccc(C)c4)cnn32)cc1 (stereo unspecified) -8.9%, O=C1CC(c2nnc(Cc3cccc(Cl)c3)o2)CN1c1ccccc1 (stereo unspecified) -26.4%, COc1cccc(-c2cc(C(=O)Nc3ccc(Br)c(C)c3)[nH]n2)c1 3.71%, Cc1ccc2c(c1)cc1c(=O)n(Cc3ccc(Cl)cc3)nc(C)n12 15.6%, COc1ccc(-n2c(=O)c3ccc(C(=O)NCc4ccc(C)cc4)cc3n(Cc3cccc(Cl)c3)c2=O)cc1 -16.9%, COc1ccc(CN(Cc2ccco2)C(=O)c2ccccc2F)cc1 -13.4%, CCOc1ccc(CNC(=O)C2CCN(c3nc4ccccc4nc3C(F)(F)F)CC2)cc1OC -1.04%, CC1CCN(c2oc(-c3cccs3)nc2S(=O)(=O)c2ccccc2)CC1 -28.1%, CCOC(=O)c1cnc2c(ccc3ccccc32)c1Nc1cccc(Cl)c1 -11.6% [at 11.5 µM], COc1ccc(CCNC(=O)c2cnc3sc(N4CCOCC4)nn3c2=O)cc1 -2.93%, Cc1nn(C)c2c1c(-c1ccccc1)cc(=O)n2Cc1ccc(F)cc1 -9.7%, COc1ccc(CNC(=O)c2cnc(N3CCCC3)nc2C)c(OC)c1 -16.1%, Cc1ccc(NC(=O)CCC(=O)N2Cc3ccccc3Oc3ncccc32)cc1Cl -11.2%, COc1ccccc1CNC(=O)C(NS(=O)(=O)c1ccc2c(c1)CCN2C(C)=O)C(C)C (stereo unspecified) -10%, COc1ccc(-c2nc3sc(CCNC(=O)Cc4ccccc4)c(C)n3n2)cc1 -10%, COc1ccc(C2=NS(=O)(=O)N(C)C(C(=O)NC(C)c3ccccc3)=C2)cc1 (stereo unspecified) -23.8%, CCN(CC)S(=O)(=O)c1ccc2c(c1)N(CC(=O)NCCCN1CCN(c3ccc(OC)cc3)CC1)C(=O)CO2 -8.71%, Cc1ccc2oc(C(=O)Nc3ccc(S(=O)(=O)N4CCCCC4C)cc3)cc(=O)c2c1 (stereo unspecified) -2.08%, CCCS(=O)(=O)N1CCC(n2c(C)nc3cccnc32)CC1 50.8% [at 11.5 µM], CCN(C(=O)CSc1nc2ccccc2n1CC(=O)N(C)C1CCCCC1)c1ccccc1 -21.6%, CCOC(=O)c1cc(-c2ccccc2)n(CCC(=O)NCCc2ccccc2)c1C -26.2%, CCc1ccc(C(=O)c2cn(CC(=O)Nc3cc(OC)ccc3OC)c3ccc(Cl)cc3c2=O)cc1 -10.5%, CC(=O)N1CCc2c(sc3c2c(=O)n(-c2ccccc2Cl)c(=O)n3Cc2cccc(C)c2)C1 -31.6%, COc1ccccc1NC(=O)CSc1cn(CC(=O)N2CCCC2)c2ccccc12 -4.2%, CC(=O)c1cccc(NC(=O)CCc2c(C)nc3nc(CN)nn3c2C)c1 -6.31%, CCC1CCCCN1C(=O)CSc1nnc(-c2ccc(OC)c(OC)c2)o1 (stereo unspecified) -17.6%, Cc1cc(-c2ccccc2)nnc1NCCN1CCOCC1 3.84%, CCOC(=O)c1ccc(NC(=O)N2CC3CCCN3c3ccccc32)cc1 (stereo unspecified) -27%, O=C(Cn1cc(S(=O)(=O)N2CCCC2)c(S(=O)(=O)N2CCCC2)c1)Nc1ccc(F)cc1 -2.29%, Cc1ccc2nc(-c3cccs3)c(Nc3ccc4c(c3)OCCO4)n2c1 26.8%, CCOc1ccc(NC(=O)c2ccc(F)c(S(=O)(=O)N(Cc3ccc(C(=O)OC)cc3)Cc3ccc(OC)c(OC)c3)c2)cc1 -26.1%, O=C(Cn1cc(C(=O)c2ccco2)c2ccccc21)Nc1ccccc1 -22.8%, CCOc1ccc(N2CC(C)Cn3c2nc2c3c(=O)n(Cc3c(F)cccc3Cl)c(=O)n2C)cc1 (stereo unspecified) -6.62%, CN(C)c1ncc(C(=O)NCc2ccc(Cl)cc2)cn1 -29.4%, COc1ccc(Cl)cc1Nc1ccc2cc(S(=O)(=O)N3CCCCC3)ccc2n1 -12.6%, O=C(CSc1ncc(-c2ccccc2)[nH]1)Nc1cccc(Br)c1 -11%, NC(N)=Nc1nc(CSCC/C(N)=N/S(N)(=O)=O)cs1 3.95%, Cc1ccc(-c2nnn3c2nc(NC2CCC(C)CC2)c2ccccc23)cc1 (stereo unspecified) 2.17%, CCOCCc1nnc(NC(=O)C(=O)c2cc(C)n(-c3ccc(Cl)cc3)c2C)s1 -17.6%, COC(=O)CN1C(C(=O)c2ccccc2)=C(OC(=O)c2ccc(F)cc2)c2ccccc2S1(=O)=O -6.73%, Cc1ccc(S(=O)(=O)c2cnc(SCC(=O)Nc3ccc4c(c3)OCCO4)[nH]c2=O)cc1C -4.91%, COc1cccc(-n2c(C)nc3cc(C(=O)O)ccc32)c1 -4.52%, COc1cccc(-c2nc3c(C#N)c[nH]n3c2NC2CCCC2)c1OC -19.5%, CC1CCCCN1C(=O)c1ccc2c(c1)N(Cc1ccc(F)cc1)C(=O)c1ccccc1S2(=O)=O (stereo unspecified) -18.1%, COc1ccc(OC)c(CNC(=O)c2cc3ccc4cccnc4c3[nH]2)c1 3.91%, CC1CCN(S(=O)(=O)c2ccc3nc(NCc4ccc(F)cc4)ccc3c2)CC1 -25.1%, Cc1ccccc1Nc1c(-c2c[nH]c3ccccc23)nc2ccccn12 20.9%, CCn1nnc2cc(C(=O)Nc3ccc(C)cc3Br)ccc21 29.2%, O=C(Cn1nnc2sc(-c3ccccc3)cc2c1=O)Nc1cccc(C(F)(F)F)c1 -11.6%, CC(C)(C)OC(=O)N1CCC(c2nnc(SCc3ccccc3F)o2)CC1 -33.1%, O=c1c2oc3ccccc3c2n(Cc2ccccc2)c(=O)n1Cc1ccco1 -10.2%, COc1ccc(C)cc1NC(=O)C(=O)NCCc1csc2nc(-c3ccccc3F)nn12 -1.71%, CCc1ccccc1NC(=O)CN(c1ccc(OC)cc1)S(=O)(=O)c1c(C)n[nH]c1C -29.9%
